In PubChem BioAssay (NCATS):
The shares of active, inactive and inconclusive entries below differ from those in the screen. No potency is given beside an inconclusive call; the fits are too rough. Active and inactive are the calls of the source. Calls follow the shape of the dose curve; as a rule, active = well fitted inhibition curve with a large enough effect; inconclusive = small, poorly fitted or top-dose-only effect; inactive = no such curve, though single readings can be large or run the other way.

Key:
[1] = BET inhibitor-based combinations targeting novel dependencies in MECOM-rearranged (r) AML: OCI-AML3 cell line (AID 2202232); settings: CellTiter-Glo luminescence, 48 h; Potency: OCI-AML3 viability; viability (% of control): at 46 µM (top of the series); also: nearly all actives have a fitted effect of over 35% in size
Outline: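 Cells were plated at 500 per well and exposed to an 11-point dose series of each drug for 48 hr. Viability was measured by CellTiter-Glo luminescence, normalized to DMSO and empty-well controls, and summarized as AUC and per-cell-line Z-AUC.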

[2] = BET inhibitor-based combinations targeting novel dependencies in MECOM-rearranged (r) AML: MV-4-11 cell line (AID 2202233); settings: MV-4-11 AML viability, CellTiter-Glo luminescence, 48 h; series mostly up to 46 µM; also: nearly all actives have a fitted effect of over 45% in size
Outline: (§1)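 Activity is given as area under the curve and as Z-AUC, mean-centred within each cell line. It comes from 11-point dose curves normalized to DMSO and empty wells. CellTiter-Glo luminescence was read after 48 hr drug exposure of 500 cells/well.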

[3] = BET inhibitor-based combinations targeting novel dependencies in MECOM-rearranged (r) AML: HNT-34 cell line (AID 2202234); settings: HNT-34 AML viability, CellTiter-Glo luminescence, 48 h; series mostly up to 46 µM; also: nearly all actives have a fitted effect of over 35% in size
Outline: as §1

[4] = BET inhibitor-based combinations targeting novel dependencies in MECOM-rearranged (r) AML: UCSD-AML1 cell line (AID 2202235); settings: UCSD-AML1 AML cells viability, CellTiter-Glo, 48 h; viability (% of control): at 46 µM (top of the series); also: nearly all actives have a fitted effect of over 40% in size
Outline: as §1
Potency is read from the fitted curve at half-maximal effect; tags tell the direction and shape of the fitted curve.

SMILES	Potency [1]	Potency [2]	Potency [3]	Potency [4]
NCc1c[nH]c(=S)n1[C@H]1CCc2c(F)cc(F)cc2C1	inconclusive [inhibitor, partial curve, poor fit]	inactive	inconclusive [inhibitor, partial curve, poor fit]	inconclusive [inhibitor, single point]
N=C1CCCN1Cc1[nH]c(=O)[nH]c(=O)c1Cl	inactive	inactive	inactive	–
COc1ccc(-c2c(-c3ccc(O)cc3O)n[nH]c2C)cc1	inactive	inactive	inconclusive [inhibitor, full curve, poor fit]	–
CC(C)OC(=O)C(C(=O)OC(C)C)=C1SC=CS1	inactive	inconclusive [inhibitor, partial curve, poor fit]	inactive	inconclusive [inhibitor, single point]
Cc1[nH]nc2ncc(C(=O)N3CCC[C@H]3c3ccc(Cl)cc3)cc12	inactive	inconclusive [inhibitor, partial curve, poor fit]	inactive	–
COc1cc2c(cc1OC)CC(=O)N(CCCN(C)C[C@H]1Cc3cc(OC)c(OC)cc31)CC2	inactive	inactive	inconclusive [inhibitor, partial curve, poor fit]	–
CC(=O)Nc1ccc(O)cc1	inactive	inactive	inactive	–
COc1ccc2c(c1)C(c1ccc(F)cc1)=C(CN1CCCC1)CO2	inconclusive [inhibitor, full curve, poor fit]	inconclusive [inhibitor, single point]	inconclusive [inhibitor, single point]	–
COc1ccc2nc(S(=O)Cc3ncc(C)c(OC)c3C)[nH]c2c1 (stereo unspecified)	inconclusive [inhibitor, partial curve, poor fit]	inconclusive [inhibitor, partial curve, poor fit]	inconclusive [inhibitor, partial curve, poor fit]	–
COc1cc(C)c(/C=C/C(C)=C/C=C/C(C)=C/C(=O)O)c(C)c1C	inconclusive [inhibitor, partial curve]	active: 5.9 µM	inconclusive [inhibitor, partial curve]	–
COc1ccc(S(=O)(=O)NCc2ccc(C(=O)NCCc3ccc(Cl)cn3)cc2)cc1	inconclusive [inhibitor, partial curve, poor fit]	inconclusive [inhibitor, single point]	inactive	inactive
O=C1NC(=O)/C(=C\c2ccc(-c3ccc(F)cc3)o2)S1	inconclusive [inhibitor, full curve, poor fit]	inactive	inconclusive [inhibitor, single point]	inconclusive [inhibitor, single point]
COc1cc(C(C)C)c(Oc2cnc(NC(CO)CO)nc2N)cc1I	inactive	inconclusive [inhibitor, partial curve, poor fit]	inconclusive [inhibitor, partial curve, poor fit]	–
C=CC[N+]1([C@H]2C[C@H]3[C@@H]4CC[C@H]5C[C@H](O)[C@@H](N6CCOCC6)C[C@]5(C)[C@H]4CC[C@]3(C)[C@H]2OC(C)=O)CCCC1	inactive	inactive	inactive	–
C=CC(=O)Nc1ccc(F)c(-c2ncnc3[nH]cc(C(=O)OCC)c23)c1	inconclusive [inhibitor, partial curve, poor fit]	inconclusive [inhibitor, partial curve, poor fit]	inconclusive [inhibitor, single point]	–
O=C(NC1CCOCC1)c1ccc(-c2cc(-c3cn[nH]c3-c3ccccn3)ccn2)cc1	inactive	inconclusive [inhibitor, partial curve]	inconclusive [inhibitor, single point]	–
Nc1[nH]c(=O)ncc1F	inconclusive [inhibitor, partial curve, poor fit]	inactive	inactive	inactive
